The record followed here is the supplement of paper PMC5919970.

Where a name gives a salt, the structure may show the parent alone. In all, about 2,000 compounds were measured (“fractional viability relative to vehicle”: median about 0.92, lowest 2% from about 0.11 on). Some of the results follow.

The test system of this assay is TYKNU. Nature of the assay: fractional viability relative to vehicle; TYKNU is a high-grade serous ovarian cancer line; higher = less growth inhibition. As to conditions: 72 h, genotype: OPA1 knockout (sgOPA1 #2). The procedure, abridged: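 TYKNU control cells or lentiCRISPRv2 knockout derivatives were plated at 500 cells per well in duplicate into drug-stamped 384-well plates holding a ~2100-compound library at 2 or 10 μM. Culture was in RPMI 1640 with 10% FBS at 37 °C in 5% CO2, with 72 h of drug treatment. Viability was measured by Cell Titer Glo luminescence, and the averaged duplicate treatment wells were normalised to duplicate control wells at the same plate position.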

Consider `c1ccc2c(c1)Nc1ccccc1S2` [Phenothiazine], for which the fractional viability (2uM) came out at 0.943 and the fractional viability (10uM) stood at 0.998.
On the same counts, the results for `CN1CCCCC1Cn1cc(C(=O)c2cc([N+](=O)[O-])ccc2I)c2ccccc21` (centres undefined) are 1.11 and 1.11.
In the same order, the values of `O=c1ccc2cc(O[C@@H]3O[C@H](CO)[C@@H](O)[C@H](O)[C@H]3O)c(O)cc2o1` [Esculin] are 1.24 and 0.78.
The compound `O=C(O)C(=O)c1cn(Cc2ccccc2)c2ccc(-c3ccc(OC(F)(F)F)cc3)cc12` [Tiplaxtinin (PAI-039)] came in with a fractional viability (2uM) of 0.83 and a fractional viability (10uM) of 0.666.
For `c1cc2c(cc1[C@H]1OC[C@H]3[C@@H]1CO[C@@H]3c1ccc3c(c1)OCO3)OCO2` [Sesamin], the fractional viability was determined as 1.06 (2uM) and 0.894 (10uM).
`Cc1cc(O)ccc1Cl` [Chlorocresol] had a fractional viability (2uM) of 1.01 and a fractional viability (10uM) of 0.909.
As to `Fc1cc(F)c2c(c1)[C@H]1C=CC[C@H]1C(c1cccnc1)N2` (some centres undefined) [Golgicide A], the fractional viability reads like this: (2uM) 0.235; (10uM) 0.256.
Compound `Nc1nc(N)nc(NC2CC2)n1` [Cyromazine] returned a fractional viability (2uM) of 1.01 and a fractional viability (10uM) of 0.994.
`CN1[C@@H]2CC[C@H]1C[C@@H](OC(=O)[C@H](CO)c1ccccc1)C2` [Hyoscyamine]: the fractional viability is, setting by setting: (2uM) 1; (10uM) 0.873.
On the same counts, the results for `NCCc1ccc(S(=O)(=O)F)cc1` are 0.87 and 0.853.
Take `O=[N+]([O-])/C=C/c1ccc2c(c1)OCO2`: the fractional viability runs as follows: (2uM) 0.477; (10uM) 0.113.
For the compound `C/C(=C\c1csc(C)n1)[C@@H]1C[C@@H]2O[C@]2(C)CCC[C@H](C)[C@H](O)[C@@H](C)C(=O)C(C)(C)[C@@H](O)CC(=O)O1` [Epothilone B (EPO906, Patupilone)], the fractional viability is 0.662 (2uM) and 0.47 (10uM).
`C=CC[C@]1(O)CC[C@H]2[C@@H]3CCC4=CC(=O)CCC4=C3C=C[C@@]21C` [Altrenogest] came in with a fractional viability (2uM) of 0.97 and a fractional viability (10uM) of 0.84.
For the compound `Cc1cccc(C(C)c2c[nH]cn2)c1C` (centres undefined) [Medetomidine HCl], the fractional viability (2uM) is 0.977 and the fractional viability (10uM) came out at 1.04.
Turning to `C=C[C@H]1CN2CC[C@H]1C[C@H]2[C@H](O)c1ccnc2ccccc12` [Cinchonidine], the fractional viability by setting is: (2uM) 0.878; (10uM) 0.804.
Consider `COC[C@H]1OC(=O)c2coc3c2[C@@]1(C)C1=C(C3=O)[C@@H]2CCC(=O)[C@@]2(C)C[C@H]1OC(C)=O` [Wortmannin], for which the fractional viability is 0.744 (2uM) and 0.149 (10uM).
With `CC1(C)CC(O)CC(C)(C)N1[O]` [Tempol], the fractional viability reads like this: (2uM) 0.982; (10uM) 1.06.
For the compound `O=S(=O)(CC1CS1)c1ccc(Oc2ccccc2)cc1` (centres undefined), the fractional viability reads like this: (2uM) 0.624; (10uM) 0.363.
As to `CN1[C@@H]2CC(O)C[C@H]1[C@@H]1O[C@@H]12` (some centres undefined) [Scopine], the fractional viability was 0.96 (2uM) and 0.768 (10uM).
On the same counts, the results for `O=c1[nH]c2ccccc2n1CCCN1CCC(n2c(=O)[nH]c3cc(Cl)ccc32)CC1` [Domperidone] are 1.14 and 0.866.
On to `COc1ccc(C(=O)N2CCCC2=O)cc1` [Aniracetam], for which the fractional viability runs as follows: (2uM) 1.21; (10uM) 1.1.
For `O=C(O[C@H]1C[C@H]2CC[C@@H](C1)[N+]21CCCC1)C(O)(c1ccccc1)c1ccccc1` [Trospium chloride], the fractional viability by setting is: (2uM) 1.05; (10uM) 1.02.
Consider `CC[C@@H](C(N)=O)N1CCCC1=O` [Levetiracetam], for which the fractional viability runs as follows: (2uM) 1.22; (10uM) 1.13.
In turn, `O=C(O)CCCc1ccc(N(CCCl)CCCl)cc1` [Chloroambucil] displayed a fractional viability (2uM) of 1.06 and a fractional viability (10uM) of 0.726.
In turn, `CN(C)Cc1c[nH]c2ccccc12` [Gramine] displayed a fractional viability (2uM) of 0.94 and a fractional viability (10uM) of 0.991.
`NC(=O)CN1CC(O)CC1=O` (centres undefined) [Oxiracetam]: the fractional viability reads like this: (2uM) 0.878; (10uM) 0.945.
For the compound `CN1CCC(c2c[nH]c3ccc(O)cc23)CC1`, the fractional viability was determined as 0.838 (2uM) and 0.922 (10uM).
Consider `C1=C2CCCN[C@H]2[C@@H]2C[C@H]1[C@H]1CCCCN1C2` [Aloperine], for which the fractional viability reads like this: (2uM) 1.02; (10uM) 0.89.
In the same order, the values of `COc1cc([C@@H]2c3cc4c(cc3[C@H](O)[C@H]3COC(=O)[C@@H]23)OCO4)cc(OC)c1OC` [Picropodophyllin (PPP)] are 0.431 and 0.348.
Regarding `O=C(O)CNC(=O)c1c(O)c2ccccc2n(Cc2ccccc2)c1=O`, the fractional viability amounted to 1.18 (2uM) and 0.799 (10uM).
On the same counts, the results for `C[N+](C)(C)CCCCCCCCCC[N+](C)(C)C` [Decamethonium Bromide] are 0.926 and 0.935.
`CCNC(=O)C[C@@H]1N=C(c2ccc(Cl)cc2)c2cc(OC)ccc2-n2c(C)nnc21` had a fractional viability (2uM) of 0.715 and a fractional viability (10uM) of 0.794.
Turning to `CC(C)=CCC[C@]1(C)C=Cc2c(O)c3c(c(CC=C(C)C)c2O1)O[C@]12C(=C[C@@H]4C[C@H]1C(C)(C)O[C@@]2(C/C=C(/C)C(=O)O)C4=O)C3=O` [Gambogic Acid], the fractional viability runs as follows: (2uM) 0.0971; (10uM) 0.0282.
`CN1c2ccccc2C(NCCCCCCC(=O)O)c2ccc(Cl)cc2S1(=O)=O` (centres undefined) [Tianeptine sodium] yielded a fractional viability (2uM) of 1.15 and a fractional viability (10uM) of 1.02.
Consider `CC[C@@]1(O)C(=O)OCc2c1cc1n(c2=O)Cc2cc3ccccc3nc2-1` [Camptothecin], for which the fractional viability is, setting by setting: (2uM) 0.261; (10uM) 0.141.
With `C[C@H]1CCC/C=C/[C@@H]2C[C@H](O)C[C@H]2[C@H](O)/C=C/C(=O)O1` [Brefeldin A], the fractional viability by setting is: (2uM) 0.269; (10uM) 0.277.
On to `CC1=C(O)C(=O)C=C2C1=CC=C1[C@@]2(C)CC[C@@]2(C)[C@@H]3C[C@](C)(C(=O)O)CC[C@]3(C)CC[C@]12C` [Celastrol], for which the fractional viability is, setting by setting: (2uM) 0.123; (10uM) 0.0841.
